In all, about 360,000 compounds went through this assay and about 7,500 (2.1%) were called active. This list was built around the results that the source calls inconclusive (neither active nor inactive); the mix of calls is not that of the screen. Calls come from the whole dose curve; as a rule, active = well fitted cell-killing curve with a large enough effect; inconclusive = small, poorly fitted or top-dose-only effect, or effect the other way, or another doubt; inactive = no such curve, though single readings can be large or run the other way. No potency is given beside an inconclusive call; the fits are too rough.
assay: qHTS for induction of synthetic lethality in tumor cells producing 2HG: qHTS for the HT-1080-IDH1KD cell line; details: HT-1080 IDH1 knockdown viability, ATP luminescence, 48 h; activity, negative = toxicity: at 46.1 µM (top of the series) unless noted;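 for activity, negative = toxicity: 0% = DMSO wells and -100% = cell-free medium wells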
How it was run: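 After a 2 h attachment period, IDH1KD HT-1080 cells took pin-transferred compound for 48 h at 37 °C; ATP-based luminescence after 10 min room-temperature reagent incubation reported viability.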
Potency is the fitted concentration of half-maximal effect; tags give direction and shape of the fitted curve.

SMILES	activity, negative = toxicity	Potency
COC(=O)Nc1sc2c(c1C(=O)NC1CC1)CCCCCC2	inactive: -9.3%	–
Cc1ccccc1OCCSCc1nc2ccccc2[nH]1	inactive: -21.3%	–
O=C(CCc1ccccc1)NC(NC(=S)Nc1ccc(Cl)cc1)C(Cl)(Cl)Cl (centres undefined)	–	inconclusive [cytotoxic, single point]
Cc1oc2c(CN3CCCCC3)c(O)ccc2c(=O)c1-c1ccc(Cl)cc1	inactive: -1.69%	–
COc1cccc(/C=C/C(=O)Nc2cccc(C(C)=O)c2)c1OC	inactive: 4%	–
O=C1C(Cl)=C(N2CCCCCC2)C(=O)N1c1ccc(Cl)cc1	inactive: -3.02%	–
Cn1c(=O)c2[nH]c(COc3ccccc3)nc2n(C)c1=O	inactive: 0.806%	–
COc1cccc(Nc2cc(N3CCOCC3)c3nonc3c2[N+](=O)[O-])c1	inactive: 8.45%	–
COC(=O)C1C(=O)C(C(=O)/C=C/c2ccccc2)C(=O)CC1(C)C (centres undefined)	–	inconclusive [cytotoxic, single point]
CN(C(=O)c1ccccc1OCc1ccc(Cl)cc1)c1ccccc1	–	inconclusive [cytotoxic, single point]
Cc1ccc(Nc2c(-c3ccc(N(C)C)cc3)nc3ncccn23)cc1	inactive: 16.7%	–
C/C(=N\NC(=O)c1cc2ccccc2cc1O)c1cc2ccccc2o1	–	inconclusive [cytotoxic, partial curve]
COc1cc(NC(=O)c2cc(-c3ccc4c(c3)OCO4)on2)cc(OC)c1OC	–	active: 5.8 µM
N#Cc1cc2c(=O)n3ccccc3nc2n(-c2ccc(Cl)cc2)c1=O	inactive: 0.929%	–
CCC(C)NC(=O)CCC(=O)Nc1ccc2nc(N3CCOCC3)cc(C)c2c1 (centres undefined)	inactive: 7.96%	–
COCCOC(=O)c1c(NC(=O)CN2CCOCC2)sc(C(N)=O)c1C	inactive: 15.5%	–
CC(Cc1cccs1)NC(=O)Nc1ccc(Cl)c(Cl)c1 (centres undefined)	–	inconclusive [cytotoxic, single point]
CC(Sc1ccc(Cl)cc1)C(=O)NNC(=O)c1ccco1 (centres undefined)	inactive: 4.17%	–
Cc1ccc(NS(=O)(=O)c2ccc(Cl)nc2)c(C)c1	inactive: -5.32%	–
COc1cccc(N/C(=N/C(=S)Nc2ccc(C)cc2C)Nc2nc(C)cc(C)n2)c1	–	inconclusive [cytotoxic, single point]
COc1ccc(-n2sc3ccc(F)cc3c2=O)cc1	–	inconclusive [cytotoxic, single point]
COc1cc(C(=O)N/N=C(\C)Cc2ccccc2)cc(OC)c1OC	–	active: 1.03 µM
Cc1nc([N+](=O)[O-])c(N2CCN(Cc3ccccc3)CC2)n1Cc1ccccc1	inactive: -2.35%	–
COC(=O)C1=NN(C(=O)c2ccccc2)C(C)(O)C1 (centres undefined)	inconclusive: -37.7%	–
O=C(Cn1cc(C(F)(F)F)ccc1=O)N/N=C/c1ccccc1O	–	active: 14.6 µM

SMILES	activity, negative = toxicity	Potency
O=C1C(=Nc2cccc(Cl)c2)CC(c2ccc(Cl)cc2)N1c1cccc(Cl)c1 (centres undefined)	inactive: 8.18%	–
O=C(Nc1nnc(-c2cccs2)o1)c1cccc(Oc2ccccc2)c1	–	inconclusive [cytotoxic, partial curve]
C=CCNC(=S)NNC(=O)COc1cccc(Cl)c1	–	inconclusive [cytotoxic, single point]
Cc1ccc(C(=O)NC(=S)NNC(=O)c2ccccc2O)cc1	–	inconclusive [cytotoxic, single point]
CC1CCCC(n2c(=S)[nH]c3ccccc3c2=O)C1C (centres undefined)	–	inconclusive [cytotoxic, single point]
Cc1sc(NC(=S)NC(=O)c2ccccc2)c(C#N)c1C	inconclusive: 35.3%	–
Cc1ccc(/C(N)=N/OC(=O)CCCc2ccccc2)cc1	inactive: 8.33%	–
COc1ccc(CN2CCCCCC2)cc1OC	inactive: 9.67%	–
O=C1NC[C@H](CCCCN2C[C@H](Cc3ccc(O)cc3)N(CCC3CCCCC3)C(=O)C2=O)N(CCc2ccc(O)cc2)C1=O	–	inconclusive [rising, single point]
CCC1=NN(C(=O)c2ccccc2O)C(O)(c2ccccc2)C1 (centres undefined)	–	inconclusive [cytotoxic, single point]
CN(C)CCCN(C(=O)CCSc1ccccc1)c1nc2cc3c(cc2s1)OCO3	–	active: 18.4 µM
C[C@H](NC(=O)c1ccc(C(C)(C)C)cc1)C(=O)N1CCN(C/C=C/c2ccccc2)CC1	–	inconclusive [cytotoxic, single point]
COc1cccc(CC(=O)Nc2cc(S(=O)(=O)N3CCOCC3)ccc2OC)c1	inactive: -11.5%	–
O=C(NC1CCN(C(=O)N2c3ccccc3Sc3ccccc32)CC1)c1ccccc1F	–	inconclusive [cytotoxic, single point]
COC(=O)C1=CN(c2ccc3c(c2)OCO3)C(N)=C(C#N)C1c1cccc(F)c1 (centres undefined)	–	active: 1.84 µM
CCOc1ccc(Cc2nnc(SCC(=O)Nc3ccc(OC)cc3)n(N)c2=O)cc1	–	inconclusive [cytotoxic, single point]
COc1ccc(OCCn2c(C)c(/C=N/n3cnnc3)c3ccccc32)cc1	–	inconclusive [cytotoxic, partial curve]
O=C(c1ccccc1)c1ccc(OCC(O)CN2CCN(S(=O)(=O)N3CCCCC3)CC2)cc1 (centres undefined)	–	inconclusive [cytotoxic, partial curve, poor fit]
O=C(Nc1sc2c(c1C(=O)O)CCCC2)c1ccccc1Cl	–	inconclusive [cytotoxic, single point]
CCN1C(=O)S/C(=C/c2ccc(Sc3nc4ccccc4[nH]3)o2)C1=O	–	inconclusive [cytotoxic, single point]
CCc1ccc(-c2cc(C)no2)cc1S(=O)(=O)N1CCN(c2ccccc2)CC1	–	inconclusive [cytotoxic, partial curve]
CCC(=O)NC(c1ccccc1OC)c1ccc2cccnc2c1O (centres undefined)	–	active: 0.501 µM
O=C(NNC(=O)c1ccc([N+](=O)[O-])o1)c1ccccc1	–	inconclusive [cytotoxic, single point]
CN(Cc1ccc(Cl)cc1)C(C(=O)NC1CCCCC1)c1ccnc2ccccc12 (centres undefined)	–	inconclusive [cytotoxic, single point]
Cc1cc2nc(-c3ccc(SCC(=O)Nc4nccs4)nc3)[nH]c2cc1C	–	inconclusive [cytotoxic, partial curve, poor fit]

SMILES	activity, negative = toxicity	Potency
O=C(O)c1cccc(Cn2c(Cl)c(/C=N/Nc3ccccc3)sc2=O)c1	–	active: 5.8 µM
CSc1ncnc2c1ncn2CCCNCC1CCCCC1	inactive: -6.56%	–
CCCNC(=O)c1cc(C2CCCCN2C(=O)c2ccc(OC)cc2)on1 (centres undefined)	–	inconclusive [rising, single point]
O=C(c1ccc(N2CCCC2)c([N+](=O)[O-])c1)N1CCc2ccccc2C1	inactive: -11.3%	–
COc1cc2c(cc1Cl)/C(=C\CCN(C)C)c1ccccc1S2	–	inconclusive [cytotoxic, single point]
Cc1ccc(OCc2nc3ccccc3n2C(C(=O)Nc2c(C)cccc2C)C2CC2)cc1 (centres undefined)	–	inconclusive [cytotoxic, single point]
CCCCN(Cc1ccccc1)S(=O)(=O)c1cc(Br)cc2c1N(C(C)=O)C(C)C2 (centres undefined)	–	inconclusive [cytotoxic, single point]
CCN1CCN(Cc2c(O)ccc3c2O/C(=C\C=C\c2ccccc2)C3=O)CC1	–	inconclusive [cytotoxic, partial curve]
COc1ccc2nc(SCC(C)=O)c(C#N)cc2c1	–	inconclusive [rising, single point]
CCCc1cc(=O)oc2c(C)c(OS(C)(=O)=O)ccc12	inactive: 0.685%	–
CCCCn1c(SCC(=O)c2ccc(O)c(O)c2)nc2ccsc2c1=O	–	inconclusive [cytotoxic, single point]
CC(=O)Nc1cccc(-c2ccnc3c2CC(C)(C(=O)NCc2cccc(Cl)c2)O3)c1 (centres undefined)	–	inconclusive [cytotoxic, partial curve]
O=C(Cn1nc(Cc2cccnc2)c2ccccc2c1=O)N1CCN(c2ccccn2)CC1	inactive: -2.59%	–
C=CCn1c(C)cc(C2=NNC(=NCc3ccccc3)SC2)c1C	–	inconclusive [cytotoxic, single point]
COc1ccccc1N1CCN(C(=O)c2c(-c3ccccc3)noc2C)CC1	–	active: 14.6 µM
CCCC(=O)OCCNc1cc(SCCC(=O)OC)c2nonc2c1[N+](=O)[O-]	–	inconclusive [cytotoxic, single point]
CC(C)C(=O)NC(c1ccco1)c1ccc2cccnc2c1O (centres undefined)	–	inconclusive [cytotoxic, full curve]
Cc1nn(-c2ccccc2)cc1C(c1c(N)[nH]c(=S)[nH]c1=O)c1c(N)[nH]c(=S)[nH]c1=O	–	inconclusive [rising, single point]
CC(=O)OCC(=O)C1(O)CCC2C3CCC4=CC(=O)C=CC4(C)C3(F)C(O)CC21C (centres undefined)	–	inconclusive [rising, full curve]
Nc1cc(OC(=O)c2ccccc2Br)nn1S(=O)(=O)c1ccccc1	–	inconclusive [cytotoxic, single point]
C/C(CC(=O)Nc1ccc(Cl)c(C(F)(F)F)c1)=N\NC(=O)c1cc2ccccc2cc1O	–	active: 16.4 µM
CN(CCCNC(=O)CSc1cc(=O)n(C)c2ccc(Cl)cc12)Cc1ccccc1	–	inconclusive [cytotoxic, single point]
Cc1cccc(OCCC(=O)Nc2nnc(C)s2)c1	inconclusive: 32.6%	–
CCc1nc2ccc(C(=O)NC3CCN(C)CC3)cn2c1N(C)CCC(C)C	–	inconclusive [cytotoxic, single point]
